# Source: PubChem BioAssay AID686978 (National Center for Advancing Translational Sciences (NCATS), 2013)
# The whole screen tested about 420,000 compounds, of which about 64,000 (15%) were called active. The inconclusive results got no clear call from the source; some entries with a clear call stand among them for comparison. Calls follow the shape of the dose curve; as a rule, active = well fitted inhibition curve with a large enough effect; inconclusive = small, poorly fitted or top-dose-only effect; inactive = flat fitted curve, though single readings scatter. No potency is given beside an inconclusive call; the fits are too rough.
# Assay: qHTS for Inhibitors of human tyrosyl-DNA phosphodiesterase 1 (TDP1): qHTS in cells in absence of CPT; also: nearly all actives have a fitted effect of over 55% in size
# Conditions: DT40 Tdp1-/- hTDP1 cells, no CPT, ATP luminescence, 48 h; activity change, negative = growth inhibition: at 46.2 µM (top of the series) unless noted
# Procedure, shortened: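 Growth of hTDP1-complemented DT40 Tdp1-knockout cells is measured by ATP luminescence after at least 48 hr compound exposure at 37 °C, with DMSO substituting for the 20 nM CPT used in the parallel screen.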
# % is scaled to controls: 0 for no effect and ±100 for the full control effect; potency is read from the fitted curve at half-maximal effect; tags tell the direction and shape of the fitted curve.
Compound,Potency,"activity change, negative = growth inhibition"
Fc1ccccc1/C=N/N1CCN(Cc2ccccc2Cl)CC1,"inconclusive [inhibitor, partial curve]",–
CC(=O)Nc1sc2c(c1C(N)=O)CCC2,inactive,–
COc1ccc(C(CC(=O)NCc2ccccc2)Sc2n[nH]c(-c3ccc(Cl)cc3)n2)cc1 (centres undefined),"inconclusive [inhibitor, partial curve, poor fit]",–
COc1ccc(Cl)cc1Nc1nc(NCCO)nc(N2CCCC2)n1,"inconclusive [inhibitor, single point]",–
CCOCCn1c(-c2ccccc2)nc2ccccc21,active: 18.4 µM,–
CCOC(=O)C1CCN(Cc2nc3ccccc3c(=O)n2-c2ccc(OCC)cc2)CC1,"inconclusive [inhibitor, partial curve]",–
O=C(CC1C(=O)NCCN1C(=O)c1ccc([N+](=O)[O-])cc1)Nc1cccc(Cl)c1 (centres undefined),"inconclusive [inhibitor, single point]",–
CC(=O)c1ccc(NC(=O)CSc2nc(N)c3cc4c(nc3n2)CCCC4)cc1,"inconclusive [inhibitor, single point]",–
CCn1c(NCc2c[nH]c3ccccc23)nc2ccccc21,"inconclusive [inhibitor, partial curve]",–
COc1cc(OC)cc(C(=O)NCC(=O)OCC(=O)c2cc(C)n(Cc3ccco3)c2C)c1,"inconclusive [inhibitor, single point]",–
CN1CCC(=NNC(=O)c2cn(-c3ccccc3)nc2-c2ccccc2)CC1,"inconclusive [inhibitor, single point]",–
CC(=O)Nc1nonc1-c1nnc(SCc2ccccc2F)n1C,inactive,–
O=C1c2ccccc2NC(c2ccccc2Br)N1CCCN1CCOCC1 (centres undefined),"inconclusive [inhibitor, partial curve, poor fit]",–
CC(C)CN(C(=O)CCC(=O)OCc1ccc(Cl)cc1Cl)c1c(N)n(CC(C)C)c(=O)[nH]c1=O,"inconclusive [inhibitor, single point]",–
Cc1ccc(S(=O)(=O)c2ccc(NN)cc2)cc1,"inconclusive [inhibitor, single point]",–
CN(CC(=O)Nc1cc(C(F)(F)F)ccc1-n1cncn1)Cc1ccccc1N1CCOCC1,"inconclusive [inhibitor, single point]",–
c1ccc(-c2nc(-c3cnc4ccccc4n3)cs2)cc1,inactive,–
CC(=O)c1ccc(N2CCN(c3ncnc4c3c(-c3ccccc3)cn4-c3ccc(Cl)cc3)CC2)cc1,"inconclusive [inhibitor, full curve]",–
O=C(CSc1ccccc1C(=O)O)NC1CCCCCCC1,inactive,–
CC(C)CN(C(=O)c1ccc(S(=O)(=O)N2CCOCC2)cc1)C1CCS(=O)(=O)C1 (centres undefined),inactive,–
COc1cc(/C=N/NC(=O)C(Cc2c[nH]c3ccccc23)NC(=O)OCc2ccccc2)cc([N+](=O)[O-])c1O (centres undefined),"inconclusive [inhibitor, single point]",–
Cc1ccc(S(=O)(=O)N2CCCN(C(=O)OC(C)(C)C)CC2)cc1,"inconclusive [inhibitor, partial curve]",–
COc1ccc([C@@H]2[C@@H]3C(=O)N(C(C)(C)C)C(=O)[C@@H]3[C@]3(C)C(=O)N(c4cccc(Br)c4)C(=O)N23)cc1,"inconclusive [inhibitor, single point]",–

Compound,Potency,"activity change, negative = growth inhibition"
Cc1cccc(C)c1NC(=O)CN1CCN(C(=O)CCC(=O)N2CCC(c3ccccc3)=N2)CC1,inactive,–
COc1ccc(NC2=CC(c3ccc(OC)cc3)N(c3ccc(OC)cc3)C2=O)cc1 (centres undefined),inactive,–
CN1CCN(c2ccc(C(CC(N)=O)NC(=O)Cc3ccc(Br)cc3)cc2[N+](=O)[O-])CC1 (centres undefined),inactive,–
CCCCSc1nnc2n(-c3ccc(OC)cc3)c(=O)c3c4c(sc3n12)COC(C(C)C)C4 (centres undefined),"inconclusive [inhibitor, single point]",–
CN1C2CCC1/C(=C\c1ccccc1)C(=O)/C2=C\c1ccccc1,active: 6.51 µM,–
COc1cccc(N=NC2C(=O)N(C(N)=S)N=C2C)c1 (centres undefined),inactive,–
CC1CCCC(NC(=O)C2COc3ccccc3O2)C1C (centres undefined),"inconclusive [inhibitor, single point]",–
C(=N\Nc1nc2ccccc2s1)/c1cccs1,"inconclusive [inhibitor, single point]",–
COC(=O)C(C)N1C(=O)S/C(=C\c2ccc(-c3ccc(C(=O)O)cc3C)o2)C1=O (centres undefined),"inconclusive [inhibitor, single point]",–
O=c1c(-c2cccs2)nc2cnc(N3CCOCC3)nc2n1-c1ccccc1,inactive,–
CC=C1OC(n2cnc3c(N)ncnc32)C(O)C1O (centres undefined),"inconclusive [inhibitor, full curve]",–
Cc1cccc2c1N(Cc1ccccc1OCCC(C)C)C(=O)C2=O,active: 11.6 µM,–
CC(=O)c1ccc(NC(=O)c2cc(C)nc3c2c(C)nn3-c2ccc(C)cc2)cc1,inactive,–
CCOC(=O)C1(CCOc2ccccc2)CCN(Cc2cc(OC)cc(OC)c2)CC1,"inconclusive [inhibitor, single point]",–
COc1cccc(-n2c(-c3ccc4[nH]c(C)c(C)c4c3)n[nH]c2=S)c1,"inconclusive [inhibitor, single point]",–
OCC1CCCCN1CC(O)COC(c1ccc(F)cc1)c1ccc(F)cc1 (centres undefined),–,inconclusive: -35.9% [inhibitor]
COc1ccc(CCN(C)C(=O)Cc2ccc(-c3ccccc3)cc2)cc1OC,active: 16.4 µM,–
COc1ccc(N(CC(=O)N2CCN(c3ccc(Cl)cc3)CC2)S(=O)(=O)c2c(C)n[nH]c2C)cc1,"inconclusive [inhibitor, single point]",–
COc1ccc(-c2cc(C)nc(SCC(=O)c3cccc([N+](=O)[O-])c3)n2)cc1,inactive,–
COc1cccc(CNC(=O)Cn2nc(-c3ccc(Cl)cc3)ccc2=O)c1,"inconclusive [inhibitor, single point]",–
Cc1cc(=O)[nH]c(Nc2cccc(F)c2)n1,"inconclusive [inhibitor, single point]",–
Cc1ccccc1NC(=O)CSC1=NCCN1,"inconclusive [inhibitor, single point]",–
COc1ccc(NC(=O)CN(C)C(=O)c2cccc(NS(=O)(=O)c3ccc(Br)cc3)c2)cc1,"inconclusive [inhibitor, single point]",–

Compound,Potency,"activity change, negative = growth inhibition"
CCCCOC(=O)Nc1ccc(C(N)=O)cc1,inactive,–
Cc1c(C(=O)N2CC3CCC2C3)sc2ncnc(NCCc3ccccn3)c12 (centres undefined),"inconclusive [inhibitor, single point]",–
COCCNC(=O)CN(CCc1ccccc1)S(=O)(=O)c1ccc(Br)cc1,inactive,–
Cc1ccc(C(=O)NNC(=O)CCCCC(=O)NNC(=O)c2ccc(C)cc2)cc1,inactive,–
COc1ccc2c(c1)c(=O)c(S(=O)(=O)c1ccccc1)cn2CC(=O)Nc1ccc(C)c(Cl)c1,"inconclusive [inhibitor, single point]",–
COc1ccc2[nH]c3c(=O)n(CCCN4CCOCC4)cnc3c2c1,inactive,–
Cc1ccc(NC(=O)[C@H](Cc2ccccc2)NC(=O)[C@@H]2Cc3ccccc3CN2)c(C)c1,"inconclusive [inhibitor, single point]",–
CN(Cc1ccccc1)C(=O)c1ccc(NC(=O)Cc2ccc(NC(=O)C3CCCN(C(=O)C4CC4)C3)cc2)cc1 (centres undefined),"inconclusive [inhibitor, partial curve]",–
COc1ccc(-n2c(=O)c3c(c4cc(OC)ccc4n3C)n(Cc3cccc(C)c3)c2=O)cc1,–,inconclusive: -24.9% [inhibitor]
O=C(Nc1cccc2nsnc12)c1ccc(F)cc1,"inconclusive [inhibitor, single point]",–
CCCCN(C=O)c1c(CC)nc2ccc(C(=O)NCCc3ccccn3)cn12,inactive,–
Cc1ccc(-c2ccc(=O)n(Cc3c(F)cccc3Cl)n2)cc1,active: 18.4 µM,–
Cc1cc(N2CCOCC2)n2cc(-c3ccc(F)cc3)nc2n1,–,inconclusive: -31.4% [inhibitor]
COC(=O)c1cccc(NC(=O)/C(=C\c2ccco2)NC(=O)c2ccco2)c1,inactive,–
CC1(C(=O)NCc2ccccc2Br)CCN1C(=O)Cc1ccc(-c2ccccc2)cc1 (centres undefined),"inconclusive [inhibitor, single point]",–
O=C(CSc1nnc(-c2ccco2)n1CC1CCCO1)c1ccccc1 (centres undefined),"inconclusive [inhibitor, partial curve, poor fit]",–
C#CCN1C=CC(=O)[C@@H](OC(=O)Nc2ccc(Cl)cc2)[C@H]1c1ccccc1Br,active: 23.1 µM,–
CC(C)(C)C(=O)CSc1ccc(S(=O)(=O)N2CCN(Cc3ccccc3)CC2)cn1,"inconclusive [inhibitor, single point]",–
COC(=O)C1=CN(c2c(C)cc(C)cc2C)C(N)=C(C#N)C1c1cccc(F)c1 (centres undefined),active: 14.6 µM,–
COc1ccc(-n2cc(C(=O)NCCc3cc(OC)ccc3OC)c3ccccc3c2=O)cc1,active: 20.6 µM,–
Cc1cc(C(=O)COC(=O)c2ccc([N+](=O)[O-])o2)c(C)n1CC1CCCO1 (centres undefined),"inconclusive [inhibitor, single point]",–
COc1ccc2[nH]c(=O)c(CN(Cc3cccs3)C(=S)NCC3CCCO3)cc2c1 (centres undefined),active: 23.1 µM,–
Cc1ccc(N2C(=O)C3C4CC(=O)C(c5ccccc54)C3C2=O)cc1C (centres undefined),"inconclusive [inhibitor, partial curve]",–
